Here are results for 82 compounds from PubChem BioAssay AID1346428 (National Center for Advancing Translational Sciences (NCATS), 2018).

The whole screen tested about 48,000 compounds, of which about 1,200 (2.5%) were called active. Another 2% or so got no clear call; they are omitted.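 How the source made its calls: active means activation of at least 60% and not above a set upper limit (about 1 call in 100 departs from these limits); inconclusive means activation of 40% to 60%, or above that upper limit; inactive means activation under 40%.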 The list shows a part of the results.

UniProt O75388, sequence (O75388 whole entry, looked up, the tested form may be a part): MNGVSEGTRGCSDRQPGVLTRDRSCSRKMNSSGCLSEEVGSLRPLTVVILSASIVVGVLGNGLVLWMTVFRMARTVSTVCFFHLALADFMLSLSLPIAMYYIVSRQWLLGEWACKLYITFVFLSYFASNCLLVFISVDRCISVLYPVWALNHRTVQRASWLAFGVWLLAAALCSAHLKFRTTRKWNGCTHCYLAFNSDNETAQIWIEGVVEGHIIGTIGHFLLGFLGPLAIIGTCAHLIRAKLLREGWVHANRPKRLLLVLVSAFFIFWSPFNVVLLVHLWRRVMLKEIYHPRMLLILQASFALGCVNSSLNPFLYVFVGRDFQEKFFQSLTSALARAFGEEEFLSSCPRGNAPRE

For the assay, the target named is Probable G-protein coupled receptor 32 (Homo sapiens) (UniProt O75388). In words: qHTS for Agonists of Human Resolvin D1 Receptor DRV1. Further: 0% is about no effect. The note with it: CHO-K1 GPR32 beta-arrestin PathHunter luminescence, 90 min; at 76.9 µM; active compounds read high; zero percent set by DMSO-only wells. The gist of the method:
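Agonism was scored as beta-arrestin recruitment to ProLink-fused GPR32 in stably transfected CHO-K1 cells, giving a chemiluminescent beta-Gal signal; compounds were incubated 90 min at 37 °C.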
With `COc1cc2ccccc2cc1C(=O)Nc1cccc(-c2nc3cc(C)ccc3o2)c1C`, the activation is inactive: -2.2%.

Consider `Cc1nn2c(=O)cc(COC(=O)COc3ccc(F)cc3)nc2s1`, for which the activation was inactive: -11%.

For `Cc1nc2cccnc2n1-c1cccc(C(=O)NCCc2ccc(S(N)(=O)=O)cc2)c1`, the activation was inactive: -10.5%.

With `COc1ccc(C(=O)NCCn2cc(SC(C)c3ccccc3)c3ccccc32)cc1OC` (configuration not stated), the activation was inactive: 19.5%.

With `Cc1ccc(N(C)C(=O)CCS(=O)(=O)c2cc3c(cc2Cl)NC(=O)CO3)cc1`, the activation is inactive: 10.8%.

As for `COc1cc(NC(=O)NCCN2CCN(c3ccccc3)CC2)cc(OC)c1OC`, the activation was inactive: -13.8%.

As for `Cc1cc(C)c(S(=O)(=O)Nc2ccc(-c3ccc(N4CCCCCC4)nn3)cc2)cc1C`, the activation was inactive: -7.15%.

As to `CCN(CC)c1ccc2cc(-c3nc(-c4ccccc4F)no3)c(=O)oc2c1`, the activation was inactive: -6.7%.

As to `CCO[C@@H]1O[C@H](C(COCc2ccccc2)OCc2ccccc2)[C@H](OCc2ccccc2)[C@H]1O` (some centres not stated), the activation was inactive: -2.5%.

As to `Cc1cccc(NC(=O)CSc2nc3c(sc4ccccc43)c(=O)n2CCCC(=O)NC2CCCC2)c1`, the activation was inactive: -14%.

Turning to `Cc1cccc(C(=O)Nc2ccc(S(=O)(=O)N(Cc3ccccc3)c3ccccc3)cc2)c1`, the activation is inactive: 14.2%.

Turning to `CCc1ccc(NC(=O)Nc2nnc(N(C)C3CCCCC3)s2)cc1`, the activation was inactive: -8%.

As to `CC(=O)c1ccc(NC(=O)Cn2c(=O)nc(-c3ccccc3)c3cc(Cl)ccc32)cc1`, the activation was inactive: 2.36%.

For the compound `O=C(Nc1cccc(C(F)(F)F)c1)c1ccc2snnc2c1`, the activation was inactive: 23.2%.

For `COc1cccc(NC(=O)c2oc3ccccc3c2NC(=O)c2cc3ccccc3o2)c1`, the activation is inactive: -1.69%.

Regarding `CCOC(=O)C1CCCN(c2ncnc3c2nnn3C)C1` (configuration not stated), the activation is inactive: -7%.

Turning to `Cc1cccc(N2CCN(C(=O)C3CCN(c4ncnc5c4nc4n5CCCCC4)CC3)CC2)c1C`, the activation was inactive: 5.75%.

For the compound `O=S(=O)(Nc1ccc(F)cc1F)c1ccc(-n2cccn2)cc1`, the activation is active: 74.7%.

On to `Cc1nc2ccn(Cc3cccnc3)c(=O)c2cc1C(=O)Nc1ccc(F)cc1F`, for which the activation was inactive: -7.11%.

As to `COCCCNC(=O)c1ccc(C)c(-n2c(C)nc3cccnc32)c1`, the activation is inactive: -1.28%.

Turning to `COCCn1c(SCC(=O)c2c[nH]c3ccccc23)nc2cc(C(=O)NC(C)C)ccc2c1=O`, the activation is inactive: -8.47%.

For the compound `O=C(CN1C(=O)CCc2cc(S(=O)(=O)N3CCOCC3)ccc21)NCc1ccc(Cl)cc1`, the activation is inactive: 21.7%.

For the compound `CCOc1ccc(CCNC(=O)c2cc3c(s2)-c2c(C)cccc2OC3)cc1`, the activation is inactive: -1.68%.

As to `CCOc1ccc(-c2nnc(SCC(=O)c3ccc(Br)cc3)n2-c2ccccc2)cc1`, the activation was inactive: 8.04%.

Take `Cc1cccc(NC(=O)Cn2cc(C(=O)C3CCCCC3)c3ccccc32)c1`: the activation is inactive: -7.64%.

In the case of `COC(=O)c1cc(Cl)ccc1OC`, the activation is inactive: -10.4%.

With `CSc1ccc(CCNC(=O)NCc2noc3ccccc23)cc1`, the activation is inactive: -2.59%.

For `CCOC(=O)CC(NC(=O)CCc1c(C)nc2c(-c3ccccc3)c(C)nn2c1C)c1ccc(OC(C)C)cc1` (configuration not stated), the activation is inactive: 5.91%.

For `COc1cc2c(-c3cccc(Cl)c3)nc3c(c(C)nn3-c3ccccc3)c2cc1OC`, the activation is inactive: -2.29%.

For the compound `COc1ccc(Cn2c(CCC(=O)NCc3ccc(Cl)cc3)nc3cccnc32)cc1`, the activation was inactive: -14%.

For `COc1cccc(CNC(=O)c2cnc3sc(N4CCCC4)nn3c2=O)c1OC`, the activation is inactive: -3.69%.

For `CCOC(=O)COc1ccc(C2C(C(=O)OC)=C(C)NC3=C2C(=O)c2ccccc23)cc1Cl` (configuration not stated), the activation is inactive: -58.6%.

Take `O=C(CSc1cn(CC(=O)N2CCCC2)c2ccccc12)Nc1ccc(Cl)cc1`: the activation was inactive: 15%.

On to `COc1ccc(Cl)cc1NC(=O)c1cc2c(=O)n3ccccc3nc2s1`, for which the activation was inactive: -13.5%.

On to `COc1ccc(CNc2nc(-c3ccco3)nn2S(=O)(=O)c2ccc(Cl)cc2)cc1OC`, for which the activation is inactive: -22.1%.

As to `Cc1ccc(C(=O)NCC(c2ccc3c(c2)OCO3)N2CCOCC2)cc1C` (configuration not stated), the activation was inactive: -8.55%.

On to `CCOC(=O)c1cc(S(=O)(=O)Nc2cc(OC)ccc2OC)[nH]n1`, for which the activation is inactive: -0.852%.

Turning to `COC(=O)c1c(NC(=O)CCCOc2cccc(C)c2)sc2c1CCC2`, the activation is inactive: -3.14%.

`Cc1cc(O)c(C(c2cccc(F)c2)N2CCN(c3ccccc3)CC2)c(=O)n1Cc1ccco1` (configuration not stated): the activation is inactive: -21.7%.

With `CN(c1ccccc1)S(=O)(=O)c1ccc(NC(=O)c2nc(S(C)(=O)=O)ncc2Cl)cc1`, the activation was inactive: -25.9%.

Take `COc1ccc(-c2c(C#N)c(SCC(=O)Nc3ccccc3C)nc(C)c2C(=O)Nc2ccc(Cl)cc2)cc1`: the activation was inactive: -18.9%.

Turning to `C[C@H]1O[C@H](O[C@H]2[C@H](O)[C@@H](O)[C@@H](O[C@H]3[C@H](O)[C@@H](O)[C@H](O)O[C@@H]3CO)O[C@@H]2CO)[C@H](O)[C@@H](O)[C@@H]1N[C@H]1C=C(CO)[C@@H](O)[C@H](O)[C@H]1O`, the activation is inactive: -2.69%.

Regarding `Cc1cc(C)n(-c2nnc(Nc3ccc(C)c(C)c3)c3ccccc23)n1`, the activation is inactive: -30.4%.

Regarding `Cc1cc2c(cc1S(N)(=O)=O)S(=O)(=O)CCC2`, the activation is inactive: -4.41%.

As for `O=C1Nc2ccccc2Oc2cc(Oc3ccccc3)ccc21`, the activation is inactive: -14%.

With `COc1ccc(NC(=O)Cn2c(SCc3ccc(C)cc3)nc3cccnc32)cc1OC`, the activation is inactive: 49.3%.

Regarding `Cc1ccc(C)c(CN2C(=O)c3ccccc3S(=O)(=O)c3ccc(C(=O)OCC4CCCO4)cc32)c1` (configuration not stated), the activation was inactive: -9.57%.

As for `COc1ccc(NC(=O)c2sc3nc4c(cc3c2N)CN(Cc2ccccc2)CC4)c(OC)c1`, the activation is inactive: -26.9%.

With `Cc1ccc(S(=O)(=O)N2CCC(C(=O)NCc3ccccc3Cl)CC2)cc1`, the activation is inactive: -17.6%.

In the case of `Cc1cccc(NC(=O)c2cc(S(=O)(=O)NCCc3ccccc3)ccc2F)c1C`, the activation is inactive: -13%.

Consider `COc1ccccc1C1c2c(-c3ccc(Cl)cc3)n[nH]c2C(=O)N1c1ccc(C)cc1` (configuration not stated), for which the activation was inactive: -20.7%.

For `CCN1CCN(Cc2c(O)ccc3c(C)c(-c4ccc(OC)cc4)c(=O)oc23)CC1`, the activation is inactive: -12.3%.

In the case of `Cc1ccccc1C(=O)Nc1cccc(OCc2cc(=O)n3c(C)csc3n2)c1`, the activation is inactive: -0.198%.

In the case of `CCN(CC)CCOC(=O)c1ccc(NC(=O)c2cc3c(=O)n(CC)c4ccccc4c3s2)cc1`, the activation is inactive: -1.29%.

On to `Cc1cc(SCC(=O)NCc2ccc(Cl)cc2)nc(=O)[nH]1`, for which the activation was inactive: 3.6%.

In the case of `CCCCCn1c(=O)[nH]c2cc(C(=O)Nc3ccc(F)c(F)c3)ccc2c1=O`, the activation is inactive: 9.81%.

For `N#Cc1ccc(-c2cccs2)nc1SCC(=O)Nc1cccc(C(F)(F)F)c1`, the activation is active: 82.3%.

In the case of `Cc1ccccc1S(=O)(=O)Cc1ccc(C(=O)N2CCN(c3cccc(Cl)c3)CC2)o1`, the activation was inactive: 22.4%.

Turning to `COc1ccc(NC(=O)C2=CC(c3ccco3)=NS(=O)(=O)N2C)cc1`, the activation is inactive: -24%.

In the case of `COc1ccccc1N1CCN(c2ncnc3c2nnn3C)CC1`, the activation was inactive: -0.452%.

As to `Cc1ccc(C)c(NC(=O)CN2CCSc3ccc(S(=O)(=O)N4CCCC4)cc32)c1`, the activation was inactive: 8.72%.

Turning to `CCOC(=O)c1oc2ccc(S(=O)(=O)n3nc(-c4ccc(C)cc4)cc3N)cc2c1C`, the activation was inactive: -0.858%.

Turning to `COc1ccc(NC(=O)C2CCN(S(=O)(=O)c3cccc(-c4noc(C)n4)c3)CC2)cc1OC`, the activation was inactive: 17.4%.

As for `CC(C)c1ccc(S(=O)(=O)N2CCC(n3c(C(F)(F)F)nc4cccnc43)CC2)cc1`, the activation was inactive: -1.51%.

In the case of `CC(C)c1ccc(CN(C(=O)c2cc3ccccc3oc2=O)C2CCS(=O)(=O)C2)cc1` (configuration not stated), the activation is inactive: -13%.

On to `CCOCCn1ccc2c(OCC(=O)Nc3ccc(C(N)=O)cc3)cccc2c1=O`, for which the activation is inactive: 11.1%.

`COc1ccc(C2NC(=O)N(C)C3=C2C(=O)N(c2ccc(Br)cc2)C3)cc1` (configuration not stated): the activation is inactive: -17.2%.

In the case of `CC(NC(=O)C1CCN(S(=O)(=O)Cc2ccccc2)CC1)c1ccccc1` (configuration not stated), the activation is inactive: -4.01%.

As to `COc1cccc2sc(N(Cc3cccnc3)C(=O)c3ccc4c(c3)OCCO4)nc12`, the activation was inactive: -17%.

Take `COC(=O)c1cc2occc2n1Cc1nc(-c2ccccc2)oc1C`: the activation was inactive: -25.3%.

For `Cc1cc(S(=O)(=O)N2CCN(Cc3noc(CCC(=O)N4CCCCC4)n3)CC2)ccc1F`, the activation was inactive: -11%.

As to `CCCc1nn2c(=O)cc(COC(=O)c3ccc(NC(=O)COc4ccc(F)cc4)cc3)nc2s1`, the activation is inactive: -12.3%.

`CN(C)c1ccc(CNC(=O)C2CCN(c3nc4ccccc4[nH]3)CC2)cc1`: the activation was inactive: -4.49%.

With `COC(=O)c1c(NC(=O)c2ccc(S(=O)(=O)N3CCC(C)CC3)cc2)sc2c1CCN(C)C2`, the activation was inactive: -34.3%.

On to `Cc1ccccc1CNC(=O)c1cnc2sc(N3CCC(C)CC3)nn2c1=O`, for which the activation was inactive: 4.16%.

Turning to `COc1cc2ccccc2cc1C(=O)Nc1cccc(-c2nc3cc(C)c(C)cc3o2)c1`, the activation was inactive: -2.01%.

As to `CN(C(=O)CSc1nnc(NC(=O)Nc2ccccc2)s1)c1ccccc1`, the activation was inactive: -7.36%.

On to `Cc1cc(C)c(NC(=O)C2CCN(c3nc4ccccc4n4cccc34)CC2)c(C)c1`, for which the activation is inactive: -30.9%.

`Brc1cccc(-c2nnn3c2nc(NCc2ccc4c(c2)OCO4)c2ccccc23)c1`: the activation is inactive: -1.46%.

As for `COc1ccc(-n2ncc(C(=O)NCc3ccco3)c2C2CCN(C(=O)OC(C)(C)C)CC2)cc1`, the activation was inactive: -13.3%.

In the case of `CC(C)NC(=O)C1CCC(Cn2c(=O)c3sccc3n(Cc3ccc(F)cc3)c2=O)CC1` (configuration not stated), the activation was inactive: 3.38%.

For `O=C(NCC(c1cccnc1)N1CCc2ccccc21)c1cccc(Br)c1` (configuration not stated), the activation was inactive: -24.9%.
